# In PubChem BioAssay AID1030 (National Center for Advancing Translational Sciences (NCATS), 2008):
# About 16,000 (7.3%) of roughly 220,000 compounds were called active. The inconclusive results got no clear call from the source; some entries with a clear call stand among them for comparison. Calls follow the shape of the dose curve; as a rule, active = well fitted inhibition curve with a large enough effect (not every such curve was filed as active); inconclusive = small, poorly fitted or top-dose-only effect, or another doubt; inactive = no such curve, though single readings can be large or run the other way. No potency is given beside an inconclusive call; the fits are too rough.
# Target: Aldehyde dehydrogenase 1A1 (Homo sapiens) (UniProt P00352)
# Chain of UniProt P00352 (P00352 whole entry, looked up): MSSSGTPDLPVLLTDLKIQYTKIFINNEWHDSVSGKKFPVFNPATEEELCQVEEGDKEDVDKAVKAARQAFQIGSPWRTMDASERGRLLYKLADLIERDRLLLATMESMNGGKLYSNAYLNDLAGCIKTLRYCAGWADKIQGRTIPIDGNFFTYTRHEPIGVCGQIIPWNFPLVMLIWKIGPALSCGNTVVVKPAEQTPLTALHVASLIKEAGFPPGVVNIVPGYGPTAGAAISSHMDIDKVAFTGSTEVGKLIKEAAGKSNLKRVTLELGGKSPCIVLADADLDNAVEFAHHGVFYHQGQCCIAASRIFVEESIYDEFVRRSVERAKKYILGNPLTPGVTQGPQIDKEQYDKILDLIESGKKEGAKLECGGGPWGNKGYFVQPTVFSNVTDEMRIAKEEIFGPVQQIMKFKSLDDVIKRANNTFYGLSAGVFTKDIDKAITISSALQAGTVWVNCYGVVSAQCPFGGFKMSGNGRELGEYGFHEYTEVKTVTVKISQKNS
# Assay: qHTS Assay for Inhibitors of Aldehyde Dehydrogenase 1 (ALDH1A1);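 as to activity, negative = inhibition: plate controls were no enzyme wells and a reference inhibitor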
# Conditions: Purified ALDH1A1, NADH fluorescence, propionaldehyde substrate; series mostly up to 75.3 µM; activity, negative = inhibition: at the top concentration
# Potency is read from the fitted curve at half-maximal effect; tags tell the direction and shape of the fitted curve.
Structure (SMILES),Potency,"activity, negative = inhibition"
NC(=O)c1c(NC(=O)CSc2nnc(-c3ccco3)n2N)sc2c1CCCC2,"inconclusive [inhibitor, partial curve]",
Oc1oc(-c2cccc3ccccc23)nc1/C=N/c1nccs1,,inactive: 9.21%
O=[N+]([O-])c1cccc(CN(CCO)Cc2ccccc2)c1,"inconclusive [inhibitor, single point]",
Nc1nc(Nc2ccc(Cl)cc2)nc2ccccc12,"inconclusive [inhibitor, partial curve]",
O=[N+]([O-])c1cc2c(cc1[N+](=O)[O-])OCCOCCOCCOCCO2,,inactive: -1.74%
CN(C)c1nnnn1-c1ccc(Cl)cc1,,inactive: 8.16%
COC(=O)c1cc(C)nc(Sc2ccccc2N)n1,active: 3.55 µM,
CC(C)[C@H](Nc1ccc(S(=O)(=O)N2CCOCC2)cc1[N+](=O)[O-])C(=O)OCC(N)=O,active: 17.8 µM,
Cc1c(NC(=O)COC(=O)c2cc3c4ccccc4n(C)c3s2)c(=O)n(-c2ccccc2)n1C,"inconclusive [inhibitor, partial curve]",
Cc1oc(-c2ccccc2Cl)nc1CSCC(=O)NC1CC1,,inactive: -18%
Cc1cccc(Cn2c(SCC(=O)Nc3ccccc3)nc3c2c(=O)[nH]c(=O)n3C)c1,"inconclusive [inhibitor, single point]",
O=C(Nc1cccnc1)c1ccc2c(c1)C(=O)N(CC1CCCO1)C2=O (centres undefined),"inconclusive [inhibitor, partial curve]",
Cn1c2c(c(=O)n(C)c1=O)CN(CC1CCCO1)CN2 (centres undefined),,inactive: -3.35%
N#C/C(=C\c1ccc(N2CCOCC2)c([N+](=O)[O-])c1)c1nc2ccccc2[nH]1,"inconclusive [inhibitor, partial curve]",
Cc1cccc(N2CCN(c3ccc(NC(=O)/C=C\C(=O)O)cc3)CC2)c1,active: 25.1 µM,
COCCNC(=O)c1ccccc1NC(=O)C1COc2ccccc2O1 (centres undefined),"inconclusive [inhibitor, single point]",
COc1ccc(/C(=C/Nc2cccc(Br)c2)C(C)=O)cc1OC,"inconclusive [inhibitor, single point]",
CCOc1ccc(NC(=S)NCCCc2ccccc2)cc1,,inactive: -7.09%
COc1cc2c(cc1OC)C(C)N(C(=O)c1ccc(Br)o1)CC2 (centres undefined),,inactive: 4.88%
COc1ccc(Oc2coc3cc(OC(=O)c4cccs4)ccc3c2=O)cc1,"inconclusive [inhibitor, partial curve]",
Cn1nnnc1SCC(=O)N1CCN(c2ccccc2)CC1,"inconclusive [inhibitor, single point]",
CCC(C)N1C(=O)S/C(=C/c2ccc3c(c2)n(C)c(=O)n3C)C1=O (centres undefined),"inconclusive [inhibitor, partial curve]",
Cc1ccc(CC2SC(=O)NC2=O)cc1Cl (centres undefined),active: 31.6 µM,
CC(=O)C1=C(C)OC(N)=C(C#N)C1c1cccc([N+](=O)[O-])c1 (centres undefined),"inconclusive [inhibitor, single point]",
O=C(c1cccc(C(=O)N(c2ccccn2)C2CCCCC2)c1)N(c1ccccn1)C1CCCCC1,"inconclusive [inhibitor, single point]",

Structure (SMILES),Potency,"activity, negative = inhibition"
CCOP(=O)(c1ccccc1)c1nc(-c2ccccc2Cl)oc1N1CCCCC1 (centres undefined),"inconclusive [inhibitor, partial curve]",
COC(C(=O)Nc1cccc([N+](=O)[O-])c1)c1ccccc1 (centres undefined),active: 20 µM,
C=CCN1C(=O)C2(NC(=O)c3ccccc3N2)c2ccccc21 (centres undefined),"inconclusive [inhibitor, single point]",
O=C(O)CCc1ccc(-c2ccccc2)o1,active: 3.55 µM,
Cn1nc(CC(=O)NC2CCCCCC2)c2ccccc2c1=O,"inconclusive [inhibitor, single point]",
CCSc1nc2c(c(=O)[nH]c(=O)n2C)n1C/C=C(/C)Cl,active: 14.1 µM,
CCOc1ccc(NC(=S)N2CCCN(Cc3cc(C)ccc3C)C2)cc1,,inactive: 0.534%
Cc1ccc2cccc(NC(=S)NC(=O)c3ccccc3)c2n1,"inconclusive [inhibitor, single point]",
COc1ccc(/C=N/NC(=O)CCOc2ccccc2C)cc1OC,"inconclusive [inhibitor, single point]",
O=C(O)c1ccc(Cl)c(S(=O)(=O)Nc2ccccc2N2CCOCC2)c1,"inconclusive [inhibitor, partial curve]",
COCCCn1c(SCc2nnc(-c3ccccc3)o2)nc2sc3c(c2c1=O)CCC3,"inconclusive [inhibitor, single point]",
Cn1c(=O)c(-c2cc(F)cc(F)c2)nc2cnc(N3CCNCC3)nc21,"inconclusive [inhibitor, partial curve]",
C#CCSc1nnc(-c2ccc(OC)cc2)o1,"inconclusive [inhibitor, single point]",
Brc1ccccc1-c1nnc(-c2cccnc2)o1,,inactive: -4.18%
COCCn1c(CN2CCN(C)CC2)nc2c1c(=O)n(C)c(=O)n2C,"inconclusive [inhibitor, single point]",
O=[N+]([O-])c1cccc2c[nH]nc12,,inactive: -15.3%
CCCC1CCc2c(sc(NC(=O)c3cccs3)c2C(N)=O)C1 (centres undefined),"inconclusive [inhibitor, full curve]",
CCC(=O)Nc1sc2c(c1C(N)=O)CCN(C(C)=O)C2,"inconclusive [inhibitor, single point]",
CC(C)(C)NC(=O)COC(=O)c1ccc(Cl)nc1,,inactive: 3.8%
c1ccc(OCCCN2CCCC2)cc1,"inconclusive [inhibitor, partial curve]",
CCc1[nH]nc2c1C1(CCOC1C)C(C#N)=C(N)O2 (centres undefined),"inconclusive [inhibitor, single point]",
CC(C)CNC(=O)c1cccc(NC(=O)Cc2ccc(Br)cc2)c1,,inactive: -4.1%
CN(C)/C=C1\C(=O)NN=C1C(F)(F)F,"inconclusive [inhibitor, partial curve]",
CC(=O)N(C(C)=O)S(=O)(=O)c1ccc(N=NN2CCOCC2)cc1,,inactive: 2.38%
O=C1/C(=C/c2ccco2)N=C(N2CCCCC2)N1c1ccccc1,"inconclusive [inhibitor, partial curve]",

Structure (SMILES),Potency,"activity, negative = inhibition"
O=C(c1cccc(F)c1)N1CCN(C(=O)c2nn3cccnc3c2Cl)CC1,active: 20 µM,
O=C(OCC(=O)N1CCCC1)c1ccc(NS(=O)(=O)c2cccs2)cc1O,"inconclusive [inhibitor, single point]",
O=[N+]([O-])c1cccnc1Oc1ccc(C2SCCS2)cc1,active: 17.8 µM,
Cc1sc(N)c(C(=O)c2ccccc2)c1C,"inconclusive [inhibitor, single point]",
CCC(=O)Nc1c(C#N)c2nc3ccccc3nc2n1-c1ccccc1C,"inconclusive [inhibitor, partial curve]",
Cc1ccc(-n2nc(-c3cccs3)cc2C(=O)NCC2CCCO2)c(C)c1 (centres undefined),active: 20 µM,
Cc1sc(NC(=O)c2ccco2)c(C(=O)c2ccc(Cl)cc2)c1C,"inconclusive [inhibitor, single point]",
O=c1c2ccccc2nc(-c2ccc([N+](=O)[O-])cc2)n1O,,inactive: -14.2%
C(=C\c1ccccc1)/C=N/n1cnnc1,,inactive: 6.57%
Cc1nn(Cc2ccccc2Cl)c2sc(C(=O)Nc3nccs3)cc12,"inconclusive [inhibitor, single point]",
CCCCOC(=O)CCc1c(C)[nH]c(=O)c(C#N)c1C,"inconclusive [inhibitor, single point]",
COc1ccccc1N(CC(O)COc1ccccc1C)S(=O)(=O)c1ccccc1 (centres undefined),,inactive: -7.69%
CC(=O)Nc1ccccc1C(=O)C(=O)Nc1cccc(C(=O)NCc2ccccc2)c1,"inconclusive [inhibitor, single point]",
Cc1ccc(S(=O)(=O)N2CCN(CC(=O)N(CC(C)C)c3c(N)n(CC(C)C)c(=O)[nH]c3=O)CC2)c(C)c1,,inactive: -17.5%
Cc1cccc(-c2nc(CS(=O)CC(=O)NC3CCCC3)c(C)o2)c1 (centres undefined),"inconclusive [inhibitor, single point]",
CCOC(=O)C1=C(NC(=S)NC(=O)c2ccccc2)c2ccccc2CC1(C)CC (centres undefined),active: 12.6 µM,
CC(NC(=O)/C=C/c1ccco1)c1nc2ccccc2n1Cc1cccc(Cl)c1 (centres undefined),active: 14.1 µM,
NS(=O)(=O)c1nc(S(=O)(=O)O)c2[nH]cnc2n1,,inactive: 1.78% [at 13.5 µM]
COc1ccc(NC(=O)CC2C(=O)N(Cc3cccs3)C(=S)N2C(C)C)cc1 (centres undefined),"inconclusive [inhibitor, single point]",
Cc1ccc2[nH]c(=O)c(CN(CCCN3CCOCC3)Cc3nnnn3C3CCCC3)cc2c1,"inconclusive [inhibitor, single point]",
CCC1(C)Cc2ccccc2-c2nc(-c3ccccc3)oc(=O)c21 (centres undefined),"inconclusive [inhibitor, single point]",
O=c1cc(-c2ccccc2)nc(SCc2ccccc2F)[nH]1,,inactive: -0.356%
COc1ccccc1C1CC(c2c(-c3ccccc3)c3cc(Cl)ccc3[nH]c2=O)=NN1S(C)(=O)=O (centres undefined),"inconclusive [inhibitor, full curve]",
COc1cc(-c2nc(-c3ccc4c(c3)-c3ccccc3S4(=O)=O)c(-c3ccccc3)[nH]2)cc(OC)c1OC,"inconclusive [inhibitor, single point]",
